This note sets out measurements from PubChem BioAssay AID1963576 (National Center for Advancing Translational Sciences (NCATS), 2024).

In all, about 46,000 compounds went through this assay and about 60 (0.1%) were called active. Roughly 3% stayed inconclusive and do not appear here. The call rests on the fitted dose curve; in most records, active means well fitted inhibition curve with a large enough effect; inconclusive means small, poorly fitted or top-dose-only effect; inactive means no such curve, though single readings can be large or run the other way. The list shows a part of the results.

The nature of this experiment: Primary qHTS assay for Inhibitors of ovarian cancer metastasis using an organotypic tumor microenvironment (TME) model. Further: nearly all actives have a fitted effect of over 65% in size.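 On activity change, negative = inhibition: plate controls were DMSO wells for no effect and tomatine positive control wells for full effect.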 As to conditions: SKOV3ip1-GFP adhesion/invasion on 3D omental model, fluorescence; series mostly up to 45.8 µM; activity change, negative = inhibition: at the top concentration. In outline: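 qHTS, 4-pt dose (0.36-46 umol/L); SKOV3ip1-GFP, 1,200 cells/well, no FBS; primary omental fibroblast/mesothelial co-culture 48 h pre-grown; 2 h RT + 16 h 37 C; PBS wash, 4% PFA; GFP count 488/509 nm.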
Take `Cc1ccc(Cl)c(NC(=O)Nc2csc3c2CCCC3)c1`: the compound was called inactive.

`CCS(=O)(=O)N1CCC(n2c(C)nc3cccnc32)CC1`: the call was inactive. For the compound `COc1cccc(C(=O)Nc2ccc(-c3nc4ccccc4s3)cc2Cl)c1`, the “activity change, negative = inhibition” value was inactive: 1.91%. On the same count and under the same terms, as for `CCn1c(=O)n(-c2ccc(F)c(Cl)c2)c(=O)c2c3c(sc21)CN(C(C)=O)CC3`, the figure is inactive: -0.655%; as for `CCOC(=O)c1nc(N2CCN(c3ccc(F)cc3)CC2)c2c(C)noc2n1`, inactive: 0.658%.

For the compound `COCCNC(=O)c1ccc(-n2c(-c3ccccc3)cc3c2CCCCC3)cc1`, the call was inactive. For the compound `COc1ccc(-c2csc3nc(-c4ccc(F)cc4)oc(=O)c23)cc1`, the “activity change, negative = inhibition” value was inactive: 2.2%. For the compound `COc1ccc(NC(=O)CCCc2nnc3n(CCC(C)C)c(=O)c4sccc4n23)c(OC)c1`, the compound was called inactive.

Consider `Cc1ccc(C)c(CSc2cn(CC(=O)N3CCCCCC3)c3ccccc23)c1`, for which the “activity change, negative = inhibition” value was inactive: -1.23%. As to `COc1cccc(N2C(=O)CSC23C(=O)N(Cc2ccccc2)c2ccccc23)c1` (stereo not drawn), the “activity change, negative = inhibition” value is inactive: 18.9%. Take `CC[C@H]1CN2CCc3cc(OC)c(OC)cc3[C@H]2C[C@@H]1C[C@@H]1NCCc2cc(OC)c(OC)cc21`: the “activity change, negative = inhibition” value is inactive: 8.37%.

Consider `COc1ccc(C[C@@H](C)[C@@H](C)Cc2ccc(OC)c(OC)c2)cc1OC`, for which the “activity change, negative = inhibition” value is inactive: 16.5%. On to `CCc1ccccc1NC(=O)Cn1nnc(-c2nc(-c3ccc(C)cc3)no2)c1N`, for which the call was inactive. As to `CCOC(=O)c1ccccc1NC(=O)CN1C(=O)CC(c2ccco2)Sc2ccccc21` (stereo not drawn), the “activity change, negative = inhibition” value is inactive: -4.08%.

`Cc1ccc2c(c1)sc1nc(-c3cc4ccccc4oc3=O)cn12`: the “activity change, negative = inhibition” value was inactive: 1.43%.

With `COc1ccc(N2CCN(c3c4c(nc5nncn35)CCC4)CC2)cc1`, the “activity change, negative = inhibition” value is inactive: 2.49%. Same read-out and setting: with `COc1ccc(NC(=O)C(=O)NCC(c2ccc3c(c2)OCO3)N2CCN(C)CC2)cc1` (stereo not drawn) the figure was inactive: 15%. On to `CCn1cc(C(=O)N2CCN(c3ccc(F)cc3)CC2)c(=O)c2cc(S(=O)(=O)N3CCOCC3)ccc21`, for which the compound was classed as inactive. Regarding `Cc1ccc(C(=O)Nc2ccc(C(=O)OCc3cc(=O)n4nc(C5CC5)sc4n3)cc2)cc1`, the “activity change, negative = inhibition” value was inactive: 4.04%. The same measure, in the same setting: as for `Cc1oc(-c2ccc(Cl)cc2)nc1Cn1c(=O)cc(C)c2c(C)nn(-c3cccc(F)c3)c21`, the figure is inactive: -8.73%; as for `CC(=O)Nc1cccc(NC(=O)CSc2cn(CC(=O)N(C(C)C)C(C)C)c3ccccc23)c1`, inactive: -6.83%; as for `CCc1ccccc1NC(=O)CSc1ncc(S(=O)(=O)c2ccccc2)c(N)n1`, inactive: 9.19%.

As for `COc1ccc(CCNC(=O)c2cc(Nc3cc(C)cc(C)c3)nc3ccccc23)cc1OC`, the “activity change, negative = inhibition” value was inactive: -18.2%. As to `CCOc1cc(CNC(=O)CCCn2c(=O)c3cccn3c3cccnc32)cc(OCC)c1OCC`, the outcome was inactive.

Regarding `CC(=O)c1cccc(NC(=O)c2cccn2-c2nnc(N3CCCCC3)s2)c1`, the “activity change, negative = inhibition” value is inactive: 20%. Regarding `COc1ccccc1Cn1c(CNS(=O)(=O)c2ccccc2Cl)nc2cccnc21`, the “activity change, negative = inhibition” value is inactive: -7.36%. Still for that read-out and setting: as for `CCOc1ccc(NC(=O)c2cc3c(n(-c4ccc(OC)cc4)c2=O)CC(C)(C)CC3=O)cc1`, the figure is inactive: 3.19%. The same measure, in the same setting: with `O=C(NCCCN1CCN(c2cccc(Cl)c2)CC1)Nc1ccccc1C(F)(F)F` the figure was inactive: -7.38%. Regarding `O=C(NC1CC(=O)N(c2ccccc2)C1)c1ccc(Br)o1` (stereo not drawn), the compound was classed as inactive. Take `Cc1cccc(N(CC(=O)NCCSCc2ccc(Cl)cc2)S(C)(=O)=O)c1C`: the compound was called inactive. The same measure, in the same setting: as for `COc1cccc(CNC(=O)C2CCN(c3nn4c(=O)cc(C)nc4s3)CC2)c1`, the entry is “inactive”; as for `Cc1c(Cl)cccc1Nc1nn2c(=O)c3ccc(C(=O)NCCc4ccccc4)cc3nc2s1`, “inactive”.

Consider `CCN(c1cccc(C)c1)S(=O)(=O)c1ccc2c(c1)NC(=O)CCS2`, for which the “activity change, negative = inhibition” value was inactive: 4.8%.

Consider `O=C(COCc1cc(-c2cccs2)on1)Nc1cccc(Cl)c1Cl`, for which the call was inactive. Still for that read-out and setting: as for `COc1ccc(NC(=O)CN2C(=O)COc3ccc(S(=O)(=O)Nc4ccccc4)cc32)cc1OC`, the entry is “inactive”. Regarding `CCN(CC)C(=O)Cn1cc(SCC(=O)Nc2ccccc2F)c2ccccc21`, the “activity change, negative = inhibition” value was inactive: -4.14%. On the same count and under the same terms, as for `CCOC(=O)c1ccc2c(c1)N(CC(=O)Nc1ccc(C)cc1C)C(=O)c1ccccc1S2`, the figure is inactive: 20.2%; as for `CCOC(=O)Cn1c(=O)oc2cc(S(=O)(=O)N3CCN(c4ccccc4F)CC3)ccc21`, inactive: 5.33%. In the case of `CNc1nc(-c2ccc3c(N)n[nH]c3c2)cc(N2C[C@@H](C(=O)NC3CCCCC3)CC[C@@H]2C)n1`, the “activity change, negative = inhibition” value is inactive: -27%. The same measure, in the same setting: with `CC(C)NC(=O)CC(=O)Nc1ccc2nc3n(c(=O)c2c1)CCCCC3` the figure was inactive: 21.3%. Take `O=C(NC1CCCCCC1)c1cc2c(Cl)nc3ccccc3c2s1`: the call was inactive. Take `CCOc1ccccc1NC(=O)C(NS(=O)(=O)c1ccc2c(c1)CCC(=O)N2)c1ccccc1` (stereo not drawn): the “activity change, negative = inhibition” value was inactive: 1.57%. Still for that read-out and setting: as for `O=C(c1ccc(F)cc1)N1CCC(c2nc3ccccc3o2)CC1`, the figure is inactive: 20.2%.

`CSc1cccc(NC(=O)C2CCN(c3ncnc4c3nc3n4CCCCC3)CC2)c1`: the “activity change, negative = inhibition” value was inactive: -1.74%. In the case of `O=C(c1ccc2c(c1)N(Cc1ccc(Cl)cc1)C(=O)c1ccccc1S2=O)N1CCN(c2ccccc2F)CC1` (stereo not drawn), the compound was called inactive. For the compound `COc1ccc(-c2nc(C(N)=O)c3c(n2)n(-c2ccccc2OC)c(=O)n3C)c(OC)c1`, the result was inactive.

In the case of `Cc1nn(C(=O)COc2ccccc2)c(C)c1Sc1ccccc1`, the “activity change, negative = inhibition” value was inactive: -9.81%.

In the case of `CCOc1ccc(CC(=O)NCCc2csc(-c3ccc(C(F)(F)F)cc3)n2)cc1`, the “activity change, negative = inhibition” value is inactive: 0.146%.
